# Source: the supplement of paper PMC3334620
# Whole data set: some 33,000 sequences, median “E-score (-0.5 to 0.5)” near -0.043, cut for the highest 2% near 0.37. The list shows a part of the results.
# Molecular target: T1, Upc2 (UniProt Q12151)
# T1 sequence: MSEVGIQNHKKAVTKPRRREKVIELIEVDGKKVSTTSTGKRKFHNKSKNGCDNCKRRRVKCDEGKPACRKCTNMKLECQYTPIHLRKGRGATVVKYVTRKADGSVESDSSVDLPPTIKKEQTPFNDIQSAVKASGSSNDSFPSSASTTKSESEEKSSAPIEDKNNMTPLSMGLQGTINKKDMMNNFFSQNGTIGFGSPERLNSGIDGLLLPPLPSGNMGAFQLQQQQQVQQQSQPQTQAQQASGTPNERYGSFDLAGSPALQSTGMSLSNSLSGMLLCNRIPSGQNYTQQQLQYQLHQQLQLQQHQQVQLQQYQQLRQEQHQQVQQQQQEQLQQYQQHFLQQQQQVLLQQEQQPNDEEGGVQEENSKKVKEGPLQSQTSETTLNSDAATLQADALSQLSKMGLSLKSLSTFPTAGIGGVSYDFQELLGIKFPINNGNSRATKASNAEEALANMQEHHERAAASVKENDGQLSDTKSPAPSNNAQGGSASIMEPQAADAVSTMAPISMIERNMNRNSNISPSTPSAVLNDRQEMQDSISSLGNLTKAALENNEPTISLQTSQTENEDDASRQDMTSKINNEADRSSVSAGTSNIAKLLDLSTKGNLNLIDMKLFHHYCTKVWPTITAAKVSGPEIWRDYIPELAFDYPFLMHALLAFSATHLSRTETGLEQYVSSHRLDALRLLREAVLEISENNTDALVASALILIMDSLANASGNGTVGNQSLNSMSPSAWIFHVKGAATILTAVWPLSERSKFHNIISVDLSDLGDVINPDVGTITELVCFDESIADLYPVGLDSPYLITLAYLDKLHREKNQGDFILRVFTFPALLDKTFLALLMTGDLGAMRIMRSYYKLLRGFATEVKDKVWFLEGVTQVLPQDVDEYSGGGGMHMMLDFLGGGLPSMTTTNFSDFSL
# Experiment: PBM E-score (8-mer binding enrichment) (E-score (-0.5 to 0.5)); higher = stronger / more preferred TF binding; most listed sequences are background and not binding sites
# Conditions: protein concentration: 200 nM; construct: GST-full length
# Summary of the method: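 Using PURExpress in vitro transcription/translation, GST-tagged yeast transcription factors were made in full-length or DNA-binding-domain form. These were applied at about 100-200 nM to double-stranded universal all-10-mer Agilent arrays, and bound protein was detected with fluorescent anti-GST. Scans were normalised with masliner before the Universal PBM Analysis Suite assigned E-scores to ungapped eight-base words pooled with their reverse complements.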
row,Sequence,PBM E-score
1,GCGACTTA,0.0997
2,AGTCATGA,-0.172
3,CTCCGTAC,0.376
4,CGATAAAG,0.0042
5,CAATGTAG,-0.165
6,GACGTAGA,0.054
7,AGGTCACC,-0.279
8,AGCCAGAG,-0.0862
9,AGATCATG,-0.187
10,ACGCCGGG,-0.0129
11,ACCCAGCT,-0.168
12,CCTGTCTC,-0.204
13,AAGTGCAC,0.0393
14,AATAATAC,0.186
15,CGGTGGTA,0.119
16,GTAGGTCA,-0.172
17,GAGTTGGA,-0.197
18,GACATCCA,-0.0621
19,GCCAATCA,-0.188
20,GAGGCAGC,-0.128
21,CGCTAAGC,0.214
22,AGGACTGA,-0.0967

row,Sequence,PBM E-score
1,AGTCATTA,-0.0642
2,ACAGAGAC,-0.124
3,ACACTCGC,0.111
4,GAAATTGC,-0.0609
5,GGTTACAC,0.0171
6,AAACCACG,-0.0614
7,CCCGAGAC,0.0631
8,ACCTGCAC,-0.0354
9,CATATCGC,0.113
10,GGGGGAAC,-0.071
11,CCTCCCTC,-0.0405
12,GCAACTCC,-0.318
13,GAACCCAA,-0.0241
14,ATCAGATG,-0.265
15,ATTTGACG,0.125
16,GTATGGGA,0.164
17,GGATCTCA,-0.23
18,CGTGATAC,0.0875
19,AATGCGGC,0.032
20,CCAACCCC,-0.136
21,ACCATTAC,0.17
22,CAACGTGG,-0.18

row,Sequence,PBM E-score
1,TGCACCCA,-0.0139
2,CGAAAGCA,0.104
3,GACTTCTC,-0.122
4,CATTGTCA,0.0475
5,ATAGGGTC,-0.145
6,AGGTAGAC,-0.125
7,CTCGCGTA,0.327
8,GATGTGGC,-0.0833
9,GTGTACCA,0.0546
10,CCAGGACC,-0.317
11,ATTCACTA,-0.0977
12,TATATCGA,0.131
13,GAGCGGAC,0.0387
14,TGAAACAA,0.0416
15,TACGCAGA,0.261
16,AACCTCCG,-0.137
17,CGTAAGAC,0.257
18,GCGTCCCA,-0.17
19,AAAGCCCT,-0.223
20,TAGTATAA,0.22
21,ATCTGGGG,-0.106
22,ACTGTGCC,-0.212

row,Sequence,PBM E-score
1,AAGATCCG,-0.0061
2,GGTTTAGA,-0.055
3,CTAACGAC,0.279
4,CGAGGCCC,0.0437
5,GGACAACC,0.0159
6,ATCCATGC,-0.179
7,CCAACGTA,0.138
8,CCCTGAGA,-0.243
9,ACGTGTAT,0.118
10,AACACTAG,-0.1
11,ATACGGCA,0.422
12,CGAAGTAA,0.271
13,GCGATACA,0.0744
14,ATGGCCCC,-0.177
15,ATATCAAT,0.0132
16,ACATCTGA,-0.258
17,CCGCGCTA,-0.0389
18,ATCCTCTG,-0.0424
19,AATTGCAT,0.0605
20,CTAGATAA,-0.0338
